Measurements: article PMC11253624, “Unsaturated fatty acid perturbation combats emerging triazole antifungal resistance in the human fungal pathogen Aspergillus fumigatus” (mBio, 2024)
In brackets after ≈: the same amount, converted by molar mass. Several values for one entry are separate records, joined by “and”; a condition that tells them apart may be missing. Identical values can stand only once.

What was measured:
[1] = test system: Aspergillus fumigatus; experiment: CLSI-based microbroth dilution MIC, A. fumigatus strains
Description: All antifungal susceptibility testing was done in 96-well plates using RPMI 1640 media buffered with 165 mM of MOPS and pH 7 using NaOH. CLSI-based microbroth dilution assays were done in accordance with M38 ([49]). Serial dilutions of the compound tested (voriconazole, MBX-7591) were done in the Y-axis of the plate, encompassing testing of 10 different concentrations. After serial dilutions, each well contained 100 µL of 2× of the desired final compound testing concentration. Each testing well was then inoculated with 100 µL of a stock of 5× 10^4 spores/mL of the appropriate strain, for a final concentration of 2.5 × 10^4 spores and to achieve the desired final compound testing concentrations. Additionally, an untreated control (100 µL of a stock of 5 × 10^4 spores/mL and 100 µL of media) and a media-only control (200 µL media) were included in the plate. The plate was covered in a Breathe-Eazy membrane to allow for uniform oxygen diffusion throughout the plate and incubated for 48 hours at 37°C, 5% CO2.

[2] = test system: Aspergillus fumigatus; experiment: FIC checkerboard synergy assay, A. fumigatus; details: for MIC: Aspergillus fumigatus
Description: For checkerboard synergy assays, serial twofold dilutions in the Y-axis were done with either voriconazole, fluconazole, or oleic acid for 4× the desired final concentration in 50 µL per well. Serial twofold dilutions of MBX-7591 were done in the X-axis for a 4× of the desired final concentration in 50 µL per well. Single-treatment controls were completed with 50 µL of media to substitute the volume of the other compound. Each well was then inoculated with 100 µL of a stock of 5 × 10^4 spores/mL of the appropriate strain, for a final concentration of 2.5 × 10^4 spores and to achieve the desired final compound testing concentrations. Additional untreated and media-only controls were added to the plate as described above. Incubation of the plates and MIC assessments (individual and in combination) were performed as described above. FIC calculations were done according to the established formula: ∑FIC=MIC combination compound A/MIC individual compound A + MIC combination compound B/MIC individual compound B . Synergy was considered equal or lower than 0.5, and antagonism was considered to be higher than 2. FIC scores reported represent between three and five biological replicates.

[3] = test system: Cryptococcus neoformans; experiment: FIC checkerboard assay MBX-7591 and oleic acid, C. neoformans; format: cell-based
Description: Single-treatment controls were completed with 50 µL of media to substitute the volume of the other compound. […] Additional untreated and media-only controls were added to the plate as described above. Incubation of the plates and MIC assessments (individual and in combination) were performed as described above. FIC calculations were done according to the established formula: ∑FIC=MIC combination compound A/MIC individual compound A + MIC combination compound B/MIC individual compound B . Synergy was considered equal or lower than 0.5, and antagonism was considered to be higher than 2. FIC scores reported represent between three and five biological replicates. All antifungal susceptibility testing was done in 96-well plates using RPMI 1640 media buffered with 165 mM of MOPS and pH 7 using NaOH. CLSI-based microbroth dilution assays were done in accordance with M27 ([49]). […] Additionally, an untreated control (100 µL of a stock of 2 × 10^3 spores/mL and 100 µL of media) and a media-only control (200 µL media) were included in the plate. The plate was covered in a Breathe-Eazy membrane to allow for uniform oxygen diffusion throughout the plate and incubated for 24 hours at 35°C (Candida spp.) or 72 hours at 35°C ± 5% CO2 (Cryptococcus neoformans).

Compound `O=C(c1ccsc1)N1CCC(Cc2ccc(COc3ccncc3)cc2)CC1` [MBX-7591] has an MIC ([1]; ATCC46455, read-out: MIC MBX-7591) of 1.23 to 2.45 µg/mL (≈ 3.13 to 6.24 µM), an MIC ([1]; read-out: MIC MBX-7591) of 1.23 µg/mL (≈ 3.13 µM) and an MIC ([1]; read-out: MIC MBX-7591, laboratory WT strains CEA10, AF293, AFS35, Table S6) of 2.45 µg/mL (≈ 6.24 µM). For the same compound, the MIC ([1]; read-out: MIC MBX-7591, strain 08-19-02-10 (TR34/L98H)) was 4.91 µg/mL (≈ 12.5 µM), the MIC ([1]; read-out: MIC MBX-7591, strain 08-19-02-46 (TR34/L98H)) was 2.45 µg/mL (≈ 6.24 µM) and the MIC ([1]; read-out: MIC MBX-7591, strain 08-19-02-61 (TR34/L98H), Table S6) was 2.45 µg/mL (≈ 6.24 µM). For the same compound, the MIC ([1]; read-out: MIC MBX-7591, strain 08-31-08-91 (TR34/L98H), Table S6) was 4.91 µg/mL (≈ 12.5 µM), the MIC ([1]; read-out: MIC MBX-7591, strain 10-19-02-27 (TR34/L98H)) was 2.45 µg/mL (≈ 6.24 µM) and the MIC ([1]; read-out: MIC MBX-7591, strain F11628 (G138C), Table S6) was 2.45 µg/mL (≈ 6.24 µM). The MIC ([1]; read-out: MIC MBX-7591, strain F15390 (M220T), Table S6) was 2.45 µg/mL (≈ 6.24 µM), the MIC ([1]; read-out: MIC MBX-7591, strain RBH-AF-01) was 2.45 µg/mL (≈ 6.24 µM) and the MIC ([1]; read-out: MIC MBX-7591, strain RBH-AF-02) was 2.45 µg/mL (≈ 6.24 µM). It also gave an MIC ([1]; read-out: MIC MBX-7591, strain RBH-AF-03) of 2.45 µg/mL (≈ 6.24 µM), an MIC ([1]; read-out: MIC MBX-7591, strain RBH-AF-08) of 2.45 µg/mL (≈ 6.24 µM) and an MIC ([2]; read-out: MIC MBX-7591, CEA10, without OA (OA checkerboard)) of 2.45 µg/mL. For the same compound, the MIC ([2]; read-out: MIC MBX-7591, strain CEA10, alone (FLC checkerboard)) was 2.45 µg/mL, the MIC ([2]; read-out: MIC MBX-7591, strain CEA10, alone (VCZ checkerboard)) was 2.45 µg/mL and the “MIC MBX-7591 combination” value ([2]; CEA10, with 7.81 μg/ml OA) was 9.81 µg/mL. The “MIC MBX-7591 combination” value ([2]; CEA10, with 15.63 μg/ml OA) was 19.63 µg/mL and 19.625 µg/mL, the “MIC MBX-7591 combination” value ([2]; CEA10, with 31.25 μg/ml OA) was over 19.63 µg/mL and the “MIC MBX-7591” value ([2]; CEA10, without OA (OA checkerboard)) was 2.453 µg/mL. The “MIC MBX-7591 in combination” value ([2]; strain 08-19-02-61, with VCZ) was 0.613 µg/mL, the “MIC MBX-7591 in combination” value ([2]; strain 08-31-08-91, with VCZ) was 1.227 µg/mL and the “MIC MBX-7591” value ([2]; strain CEA10, alone (VCZ checkerboard)) was 2.453 µg/mL. The “MIC MBX-7591 in combination” value ([2]; strain CEA10, with FLC) was 0.613 µg/mL, the “MIC MBX-7591 in combination” value ([2]; strain CEA10, with VCZ) was 0.613 µg/mL and the “MIC MBX-7591 in combination” value ([2]; strain F11628, with VCZ) was 0.613 µg/mL. For the same compound, the “MIC MBX-7591 in combination” value ([2]; strain F15390 (caf8), with VCZ) was 0.613 µg/mL, the MIC ([3]; Cryptococcus neoformans, read-out: MIC MBX-7591) was 4.91 µg/mL and the “MIC MBX-7591 combination” value ([3]; H99, with 31.25 μg/ml OA, 5% CO2) was over 19.63 µg/mL.
